Reference: the supplement of paper PMC11417369
Some of the results follow.

What follows are sequences tested on PfSIP2 AP2 domain 1 (GST-tagged) (assay: gcPBM binding intensity (ln(normalized median fluorescence intensity)); higher = stronger DNA binding).
Method in brief: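 Each value is the highest Masliner-normalised natural-log median intensity across replicate spots of either orientation of a probe. The probes were primer-extended double-stranded 36-bp intergenic genomic sequences on an Agilent 4 × 180k array, alongside negative controls, exposed for 1 h to GST-tagged P. falciparum DNA-binding domains expressed in E. coli. Bound protein was picked up with Alexa488 anti-GST antibody and scanned at 488 nm.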

Row | Sequence | gcPBM binding intensity (ln)
1 | ATATATATATATATATGTACTAACCTTTTAAAATAT [XGTACX_site6488] | 9.27
2 | TATTACATTGTTGAATGTACTCATTTAAAATTTATA [XGTACX_site7987] | 6.76
3 | AATCAAAGCCCACATACACACACATATATATATATA [CACACA_site7987] | 9.39
4 | ATGTCAAACATTTGCACACAAAAAAATAAAAATTAA [CACACA_site692] | 7.22
5 | TTTTTTTTTTTTTGCACACACATAATAGGTACAAAT [CACACA_site3577] | 7.5
6 | TTTTTTTTTTTTTTCTCACACATTTAATGATAATAT [CACACA_site5513] | 7.06
7 | CATATTTACTATCACACACACGATATATATAAATAT [CACACA_site1241] | 7.25
8 | ATATAGAACACCTGTGCATGCAAGTGCTAAAAAATT [TGCATGCA_site213] | 8.43
9 | TAATATTATTTAGAGTGTACTCATAAATCAACAAAA [XGTACX_site5269] | 6.75
10 | CTAAGCTAAGTAAGCTGTACTTCACCTTTATACAGT [XGTACX_site3087] | 6.92
11 | CTATTTTTATATTATTGTACGTTGTTATTATATATA [XGTACX_site1469] | 7.38
12 | TTTATATTTATATATACACACATATACATCCTATTT [CACACA_site3079] | 6.9
13 | ATATATATGGAAACAGTGCAATACATATATATATAT | 9.5
14 | TTTTTCTTAAAAAATTGTACACATATATATATATAT [XGTACX_site542] | 9.58
15 | ATTAAGTTAAACATTACACACTATGTATTATTTATG [CACACA_site973] | 6.95
16 | TTTTTTTTTTTTAATACACACATATTTATATTTATT [CACACA_site7802] | 6.93
17 | AAACAATAAAAGATTACACACATATATAGCATCTAT [CACACA_site5012] | 6.75
18 | TTTCATTTGTCGTTATGTACTTATTAAATATTATTA [XGTACX_site7709] | 7.43
19 | TAAAGTAAAGACATACTTATTTTCCATCCACTTCTT [CACACA_negctrl_site1288] | 6.79
20 | CACATACAGACATACACACATACACATATACGCATA [CACACA_site1745] | 7.5
21 | TCTGTATATTTCGCGCGTACGAACAAATTGATAATT [XGTACX_site7965] | 7.11
22 | ATATATATTTTTATAACACACAATGAAGTACATTAC [CACACA_site8270] | 7.27
23 | ATATAATATGGTATTACACACTGTTAAAAGTATGGC [CACACA_site5190] | 7.03
24 | ATATATATAAAATGTTGTACATATATATAAATAATA [XGTACX_site1661] | 7.29
25 | CTAAAATACAGACACACACACACATATATATATATA [CACACA_site4150] | 9.52
